Source: paper doi:10.1101/2023.07.19.549721, “Passaging Human Tauopathy Patient Samples in Cells Generates Heterogeneous Fibrils with a Subpopulation Adopting Disease Folds” (bioRxiv, 2023)

Target: the molecule itself
Test: ThT fluorescence; recombinant tau with 5% or 15% (protein mass) lysate of Tau4RD*LM-YFP cells propagating CBD or PSP tau, 20 mM HEPES pH 7.4, 37 °C, 24 h, 20 µM ThT, no cofactor

B1: cysless Tau187 P301L (domain or fragment)
chain: not shown
notes: numbers count on: the longest tau isoform, 2N4R (441 residues); In the assays it stood as monomer at the start and as fibrils at the end; also called recombinant Tau187; unlabeled Tau187; source: E. coli BL21 (DE3), purified (heat step, Ni-NTA, SEC; monomer fractions)
binding result: binds
